Our source for the z-score values is PubChem BioAssay AID488969 (Vanderbilt High Throughput Screening Facility, 2010).

Structures are written as SMILES. In all, about 110,000 compounds were measured (“z-score”: median about -0.1, highest 2% from about 2 on). This is one part of the list. Activity calls are given as the source filed them.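 The calls were made as follows: active = z-score in the third read window above 3 or below -3; inactive = the rest.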

The target of this assay is Metabotropic glutamate receptor 8 (Rattus norvegicus) (UniProt P70579). The experiment in a line: rat mGluR8 modulators via GIRK flux, primary screen, cell-based, thallium flux, HTS (AID 488969). The settings on record: HEK293 rat mGluR8, GIRK (G protein-gated inwardly rectifying potassium channel) thallium flux, FluoZin2; at 10 µM; stronger effect = higher value; submaximal glutamate (EC20) added with thallium.
Sequence of UniProt P70579 (P70579 whole entry, looked up): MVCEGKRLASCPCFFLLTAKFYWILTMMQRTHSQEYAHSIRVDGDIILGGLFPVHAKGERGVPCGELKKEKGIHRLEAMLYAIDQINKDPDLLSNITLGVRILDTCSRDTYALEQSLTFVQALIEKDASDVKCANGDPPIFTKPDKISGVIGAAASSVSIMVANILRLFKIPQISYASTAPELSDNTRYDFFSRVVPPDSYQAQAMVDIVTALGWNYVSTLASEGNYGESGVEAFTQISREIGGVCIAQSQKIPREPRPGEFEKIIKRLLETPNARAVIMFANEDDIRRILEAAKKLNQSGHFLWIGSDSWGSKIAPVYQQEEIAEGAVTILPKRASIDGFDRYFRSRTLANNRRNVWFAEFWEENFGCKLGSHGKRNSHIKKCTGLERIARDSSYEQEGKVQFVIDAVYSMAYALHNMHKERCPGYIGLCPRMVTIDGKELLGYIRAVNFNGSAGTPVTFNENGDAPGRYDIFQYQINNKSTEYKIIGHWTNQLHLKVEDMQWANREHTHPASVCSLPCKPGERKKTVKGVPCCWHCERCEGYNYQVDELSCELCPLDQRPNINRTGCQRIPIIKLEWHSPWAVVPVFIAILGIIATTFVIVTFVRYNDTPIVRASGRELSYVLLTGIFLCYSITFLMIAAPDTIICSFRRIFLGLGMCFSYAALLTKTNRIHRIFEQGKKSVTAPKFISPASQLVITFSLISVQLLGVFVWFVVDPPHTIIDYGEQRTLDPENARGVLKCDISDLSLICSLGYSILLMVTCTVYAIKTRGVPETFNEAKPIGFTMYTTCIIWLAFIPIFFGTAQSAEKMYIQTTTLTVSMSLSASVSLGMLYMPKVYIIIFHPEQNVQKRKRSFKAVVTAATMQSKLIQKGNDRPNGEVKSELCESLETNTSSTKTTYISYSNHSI
`Cc1ccc(NC(=S)N2CCN(c3ncccn3)CC2)cc1C` displayed a z-score of 0.148.
As to `O=C(NCCC1=CCCCC1)C1CCN(S(=O)(=O)c2cccc3nsnc23)CC1`, the z-score was found to be 0.0327.
For `Cc1cc(C(F)F)n2nc(C(=O)Nc3ccccc3Br)nc2n1` the value was -0.246; for `Cc1ccc(-c2csc(N/N=C/c3ccco3)n2)cc1`, -0.357; for `CN(Cc1ccccc1)C(NC(=O)c1ccccc1)C(Cl)(Cl)Cl` (stereo not given), -0.194.
The figure for `CCOc1ccc2nc(SCC(=O)N3CCCc4ccccc43)sc2c1` is -0.128; for `Brc1c(CSc2nc3ccccc3s2)nc2ncccn12` it is -0.356; for `CC1=C(C(=O)NC(C)C)C2(CCC(C)CC2)OC1=O` (stereo not given) it is -1.59.
Compound `COc1ccccc1NC(=O)CSc1nnc(-c2ccccn2)n1Cc1ccco1` returned a z-score of -1.55.
For `Cc1nnc(SCC(=O)N2CCN(S(=O)(=O)c3ccc(Cl)cc3)CC2)[nH]c1=O` the value was 0.514.
The figure for `Cn1c(=O)c2c(nc(CN3CCOCC3)n2CCCc2ccccc2)n(C)c1=O` is 0.672.
For `N#Cc1cccc(-n2c(-c3ccccc3)nnc2-c2ccccc2)c1C#N` the value was -0.147; for `COc1ccc(Cc2nc3c4c(ncn3n2)Oc2ccc3ccccc3c2C4c2ccc(OC)c(OC)c2)cc1` (stereo not given), -0.407.
Turning to `CCN(CC)c1ccc(C(=O)NC(=S)Nc2cc(S(=O)(=O)N3CCOCC3)ccc2-n2cncn2)cc1`, the z-score is 0.811.
For `O=C(CC1NC(=O)NC1=O)Nc1cccc2ccccc12` (stereo not given) the value was -0.153.
The figure for `COc1ccc(S(=O)(=O)N2Cc3ccccc3CC2C(=O)Nc2ccc(O)cc2)cc1OC` (stereo not given) is -0.415; for `O=C1NC(Cc2c[nH]c3ccccc23)C(=O)N1Cc1cccc2ccccc12` (stereo not given) it is -0.157; for `CCOC(CNC(=O)CCc1c(C)nc2ncnn2c1C)OCC` it is -0.0825.
For the compound `CC1(C)CC(CC(=O)O)(c2ccc(Cl)cc2)CCO1` (stereo not given), the z-score was -0.155.
Take `FC(F)Oc1ccc(-c2csc(Cc3nnc4n3CCCCC4)n2)cc1`: the z-score is -0.0502.
For `O=C(COc1ccc(/C=N/NS(=O)(=O)c2ccccc2)cc1)Nc1ccccc1` the value was -0.127; for `COC(=O)Cc1ccc2c3ccccc3n(C)c2c1`, -0.078.
The figure for `CCCSc1nc(N2CCOCC2)c2c(c1C#N)CCCC2` is -1.15.
The figure for `C=CCc1ccccc1OCC(O)CN1CCN(CCN2C(=O)c3cccc4cccc(c34)C2=O)CC1` (stereo not given) is -0.0124; for `Cc1ccc(C2C3=C(Nc4[nH]n(-c5ccccc5)c(=O)c42)c2ccccc2C3=O)cc1` (stereo not given) it is -0.223.
`COc1c2c(nc3occc13)C(CC=C(C)C)(OC)C(O)CC2` (stereo not given) displayed a z-score of -0.121.
For the compound `CCCc1ccc(C(=O)N2CCN(c3ccccc3OCC)CC2)cc1`, the z-score was active: -3.53.
`CCOc1ccc(Br)cc1CC(=O)O` displayed a z-score of 0.168.
As for `COc1cc(NC(=O)c2cc(-n3cnnc3)ccc2Cl)cc(OC)c1`, the z-score was -0.403.
Regarding `CCOC(=O)C1=C(O)/C(=C/c2ccc(CNC(=O)C(=O)Nc3ccc(C)cc3)o2)N=C1C`, the z-score was -0.118.
For `Cc1ccc(C(=O)Nc2nc(=O)n(C(=O)C3CC3)s2)cc1` the value was -0.185.
The figure for `O=C(CCNS(=O)(=O)c1ccc(Cl)cc1)NCc1ccccn1` is 0.775; for `Cc1ccc2nc(SCc3ccc([N+](=O)[O-])cc3)[nH]c2c1` it is -0.559.
For `CC(C)CNC(=O)C1CCCN1S(=O)(=O)c1ccc(Cl)cc1` (stereo not given) the value was 0.241.
Compound `O=C(CSc1c2c(nc3cc(Cl)ccc13)CCCC2)NCc1ccco1` displayed a z-score of -0.36.
For `COc1cccc(NC(=O)C2C3C=CC(O3)C2C(=O)NCc2cccnc2)c1` (stereo not given) the value was -0.0842; for `CCc1nc(SCC(=O)NCc2ccco2)c2c3c(sc2n1)CCCC3`, 0.232.
The figure for `O=C(N/N=C/c1ccco1)c1cc(Br)ccc1OCc1ccccc1` is 0.0858; for `c1ccc(-c2noc(CN3CCN(c4ccccc4)CC3)n2)cc1` it is 0.197; for `Cc1cc(NC(=O)C2CCCC2)nc2c1c(=O)oc1ccccc12` it is -0.0802.
Compound `CCCNS(=O)(=O)c1ccc(OCC(=O)NCCCOC)cc1` returned a z-score of -0.378.
Take `O=C(CSc1ccc2ccccc2c1)Nc1ccc(S(=O)(=O)Nc2nccs2)cc1`: the z-score came to 0.216.
The figure for `Cc1nc2ccccc2n1/N=C/c1cccnc1` is -0.186; for `Cc1ccccc1N=C1SC(CC(=O)Nc2ccc3ccccc3c2)C(=O)N1Cc1ccccn1` (stereo not given) it is -0.357.
Consider `CC1CC(=O)C2=C(C1)Nc1ncnn1C2c1ccccc1` (stereo not given), for which the z-score turned out to be 1.35.
For `O=C(O)c1cc(Cl)c2ccccc2c1O` the value was -1.43; for `CCCCN(CC)C(=O)Cn1cnc2ccc(S(=O)(=O)N3CCC(C)CC3)cc2c1=O`, -0.128; for `CN(C)c1ccc([C@@H]2[C@@H]([N+](=O)[O-])[C@H]3C=Cc4ccccc4N3[C@H]2C(=O)c2ccc(Cl)cc2)cc1`, 0.511.
Compound `CC1(C(=O)N2CC3(CC(c4ccccc4)=NO3)C[C@H]2C(=O)NCC(N)=O)CC1` (stereo not given in full) came in with a z-score of -0.0396.
The figure for `C=CCn1c(N)c(C(=O)NCC2CCCO2)sc1=S` (stereo not given) is 0.129.
For `COc1ccc(CNC(=O)c2ccc(NC(=O)CC3SC(N4CCCC4)=NC3=O)cc2)cc1` (stereo not given) the value was -0.116.
The figure for `COc1ccc(S(=O)(=O)N2CCN(C3Cc4ccccc4C3)CC2)cc1` is -0.439.
Compound `CCOC(=O)C1CSC(CC(=O)Nc2ccc(Cl)c(Cl)c2)C(=O)N1` (stereo not given) gave a z-score of 1.38.
The figure for `CCC(=O)NC(NCC1CCCO1)C(Cl)(Cl)Cl` (stereo not given) is -0.0963.
The figure for `CN(Cc1nc(-c2ccncc2)no1)S(=O)(=O)c1ccc(Br)cc1` is 0.529.
On to `Cc1ccc(OCCCC(=O)Nc2ccc(N3CCOCC3)cc2)c(C)c1`, for which the z-score is 0.793.
For `Clc1ccc(SCc2cc(-c3ccccc3)no2)cc1`, the z-score was -0.0581.
For `Cc1cc(C)n(CCCNC(=O)c2ccc3c(c2)NC(=O)CS3)n1` the value was -0.171; for `COc1cccc(C(=O)NC2CCN(CC(=O)Nc3nccs3)CC2)c1`, -0.769.
The compound `COc1ccc(N(C(C)=O)S(=O)(=O)c2cc(OC)ccc2OC)cc1` came in with a z-score of 0.226.
The figure for `Cc1nn(CC(=O)Nc2ccc(C(=O)N3CCCCC3)cc2)c(=O)c2ccccc12` is 0.27; for `CC1(C(=O)Nc2nccs2)Cc2ccccc2C(=O)O1` (stereo not given) it is -0.876.
`CC(C)NC(=O)c1cc2c(-c3ccc(Cl)cc3)nn(C)c2s1` yielded a z-score of 0.0729.
For `O=c1cc(NC2CCCCCC2)[nH]c(=O)[nH]1` the value was 0.183; for `CC(C)Oc1ccc(/C=N/NC(=O)C(CSCc2ccccc2)NC(=O)c2ccc([N+](=O)[O-])cc2)cc1` (stereo not given), -0.341.
The figure for `Cc1cc(C)cc(N2C(=O)CN(Cc3sccc3C)C2=S)c1` is -0.593; for `CCOC(=O)c1nnc2c(Br)c(-c3ccccc3)nn2c1C` it is -0.554.
The figure for `Cn1c(=O)c2c(nc(NCCCO)n2Cc2cccc(C(F)(F)F)c2)n(C)c1=O` is 0.194; for `Cc1ccc(-n2ncc3c(Nc4c(C)n(C)n(-c5ccccc5)c4=O)ncnc32)c(C)c1` it is 0.188.
With `O=C(CCS(=O)(=O)c1ccc(Br)s1)NC1CCCC1`, the z-score is -0.142.
The figure for `CC(NC(=O)c1ccccc1NS(C)(=O)=O)c1ccccc1` (stereo not given) is 0.106; for `CCOc1ccccc1C1CC(c2ccc(Cl)cc2)Nc2nc(N)nn21` (stereo not given) it is 0.222.
The figure for `CC(C)N1C(=O)CCC1C(=O)NCCc1ccccc1` (stereo not given) is -0.366; for `C[N+]12CCCCC1C(COC(=O)c1ccc3c(c1)OCO3)CCC2` (stereo not given) it is -0.0748; for `O=C(CSc1ccccc1)Nc1cc(Cl)ccc1Oc1ccccc1` it is -0.0314.
Compound `COc1ccc(C(=O)Nc2ccc(S(=O)(=O)N3CCCCC3C)cc2)c(OC)c1OC` (stereo not given) came in with a z-score of 0.153.
For the compound `CN(C)c1ccc(CN(C(=O)COc2ccccc2)C2CCS(=O)(=O)C2)cc1` (stereo not given), the z-score is -0.709.
Regarding `CC(C)N(C)CCOC(=O)c1ccc2c(c1)OCCO2`, the z-score came to 0.155.
The figure for `COc1cc([N+](=O)[O-])ccc1NC(=O)CCCOc1ccccc1` is -0.378; for `Cc1ccc(C(=O)n2nc(-c3ccccc3)nc2NCc2ccco2)cc1` it is -0.173.
The figure for `C=CCN1C(=O)CSc2ccc(C(=O)NCc3ccco3)cc21` is 0.732; for `Cc1ccc(NC(=O)c2cc(S(=O)(=O)NCCC3=CCCCC3)ccc2F)cc1` it is -0.136; for `O=C(Nn1cnnc1)c1ccc(F)c(S(=O)(=O)N2CCCCC2)c1` it is -0.168.
The figure for `CN(C)c1ccc(C2OC(=O)C3(CCCC3)C(=O)C2(C)C)cc1` (stereo not given) is -0.0938.
Compound `c1nnc2c3c4c(sc3ncn12)CCCC4` showed a z-score of -0.205.
The compound `Cc1cc(C=C2C(=O)CCCC2=O)c(C)n1-c1ccccc1` showed a z-score of -0.169.
For `CCN(CC)c1ccc(NC(=O)CSc2nc(C)cc(=O)[nH]2)cc1` the value was -0.559; for `CCc1ccc(N(CC(=O)Nc2ccccc2C(=O)N2CCOCC2)S(C)(=O)=O)cc1`, -0.219.
For `CC1(C)Cc2nc(NCCN3CCOCC3)c(C#N)cc2CO1` the value was active: 7.19; for `Cc1ccc(CNc2ccc(S(=O)(=O)N3CCOCC3)cc2[N+](=O)[O-])cc1`, 0.0549.
On to `COC(=O)c1ccccc1NC(=O)CSc1nccn1C`, for which the z-score is -0.372.
For `CC(=O)c1cc2c(cc1NC(=O)CN1CCN(c3ccc(F)cc3)CC1)OCO2` the value was -0.109; for `Cc1ccc(C(=O)Nc2nc(-c3cc(Cl)sc3Cl)cs2)cc1`, -0.946.
The figure for `O=C(C1=NNCC1c1ccc(Cl)cc1)C1CO1` (stereo not given) is -0.386; for `O=S1(=O)c2ccccc2N=NN1Cc1cc(Cl)cc(Cl)c1` it is -0.076; for `COc1ccc(CCC(=O)Nc2cccc(S(=O)(=O)N(C)C)c2)cc1OC` it is -0.0481.
For `CCOCCCNS(=O)(=O)c1ccc2c(c1)CCN2C(=O)CC` the value was -0.314.
`O=c1[nH]c2ccc(NC(=S)Nc3ccc(Cl)cc3Cl)cc2[nH]1`: the z-score stood at 0.027.
`Cc1nnc(SCC(=O)N2c3ccccc3C(C)(c3ccc(Cl)cc3)CC2(C)C)s1` (stereo not given) displayed a z-score of 0.227.
The figure for `O=c1cc2c(nn1Cc1c(Cl)cccc1Cl)-c1ccccc1CC2` is -0.164; for `C=CCNC(=O)c1cccc(Br)c1` it is -0.15; for `O=C(CN1CCOCC1)Nc1cccc(Br)c1` it is -0.534.
For `Cc1ccc(NCC(=O)N/N=C/c2cccc(Oc3ccccc3)c2)cc1` the value was -0.211.
On to `Nc1cc(=O)[nH]c(SCC(=O)Nc2ccc(F)c(Cl)c2)n1`, for which the z-score was -0.193.
For `S=c1sc2c(N3CCOCC3)ncnc2n1-c1ccccc1` the value was 0.0646; for `CCc1cc2c(N=Nc3c(O)[nH]c4ccccc34)ncnc2s1`, -0.149.
The figure for `O=C(Nc1ccccc1)C1=C(N2CCOCC2)/C(=C/c2cccnc2)CC1` is -0.685; for `O=C(O)C1C2CCC(O2)C1C(=O)Nc1ccc(O)cc1` (stereo not given) it is -0.366; for `Cc1cc2ncn(C3CC(=O)N(Cc4ccccc4)C3=O)c2cc1C` (stereo not given) it is 0.055.
Turning to `O=c1[nH]c(CN2CCCCC2)nc2ccccc12`, the z-score was 0.00805.
